The supplement of paper PMC11417369
± gives the standard deviation of the averaged measurements. The list shows a part of the results.

Test system: PfAP2-G AP2 domain (GST-tagged)
Test: gcPBM binding intensity (ln(normalized median fluorescence intensity)); higher = stronger DNA binding
Method in brief: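 Each value is the highest Masliner-normalised natural-log median intensity across replicate spots of either orientation of a probe. The probes were primer-extended double-stranded 36-bp intergenic genomic sequences on an Agilent 4 × 180k array, alongside negative controls, exposed for 1 h to GST-tagged P. falciparum DNA-binding domains expressed in E. coli. Bound protein was picked up with Alexa488 anti-GST antibody and scanned at 488 nm.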

| Sequence | gcPBM binding intensity (ln) |
| --- | --- |
| TTATCATTTGCCATTGTGCACTTATATGCTCACATT | 10.3 ± 0.23 |
| TTTTTTTTTCAAGAGGTGCGTGTATTTTAACAAAAA | 10.3 ± 0.43 |
| AAAAAAAATTATGAAGTGCATTAGTGAATTTGATTG | 9.92 ± 0.085 |
| TTTTTCACACTTCAAAAGTGTCAACCTTCTATTCTC [TGCATGCA_negctrl_site489] | 10.15 ± 0.085 |
| CAGTTTACTAATATTGCACACGAATATGAAAAAGAG [CACACA_site8941] | 10.6 ± 0.39 |
| TACATATATTATTGCACACATATAAAATACCCCCAA [CACACA_site3895] | 10.9 ± 0.57 |
| TTGTCTACAAAAATGTGCTTCTAATCATACGACTTG [CACACA_negctrl_site46] | 10.1 ± 0.16 |
| GTAAAATTTACATAGAGTACTTATATTTTTTTCTGC [XGTACX_site3414] | 11.3 ± 0.79 |
| CACAAATATACAAATACACACAAATATACAAATACA [CACACA_site2385] | 10.12 ± 0.049 |
| CACAATGTAGTGTATAAATACAATAAAAGGTTGTAT [CACACA_negctrl_site700] | 10.2 ± 0.049 |
| AATAAAATGCAATACATTTTGTTATATAATGTTGTT [CACACA_negctrl_site1525] | 9.65 ± 0.12 |
| GTATAATTTATTGAACGTACACATATATATATGTAT [XGTACX_site1395] | 11.5 ± 1 |
| TAAAGTGTAAAATTCACACACATATATATATATATA [CACACA_site4883] | 9.96 ± 0.32 |
| ATATTGTAAGTAAACACACACACATATATCTGTATA [CACACA_site4541] | 10.1 ± 0.11 |
| ATTTTTTTTTTCTTTTTTTTTTGTTTTTCTCCTTTT [CACACA_negctrl_site1182] | 9.69 ± 0.19 |
| ATTTTTTTTATTATTACACACATATAATAAAAAAAT [CACACA_site1802] | 10.2 ± 0.35 |
| TATTTGTAAAAATTGTGTACTTAGAAAATTCCAAAA [XGTACX_site6007] | 11.3 ± 0.81 |
| TATATGTTTTTATGTACACACTTTTAACCTAAGAAA [CACACA_site4769] | 11.6 ± 0.97 |
| TTCTTGTATATATTTTGTACATATATACCATTTTAG [XGTACX_site2409] | 10.7 ± 0.38 |
| TATTTCTTATTACATACACACATATACATAGATGAC [CACACA_site5729] | 10.2 ± 0.24 |
| TCTTGTCTACCTTGTATTTAATATTTACATATATAA [TGCATGCA_negctrl_site320] | 10.3 ± 0.2 |
| ATAGGTAATAATAATACACACGGTGAAATATAGATG [CACACA_site9336] | 10.1 ± 0.16 |
| AAATGTATAGGAATAATAATAAAAAAAAAAAAAAAT [CACACA_negctrl_site1793] | 9.515 ± 0.049 |

| Sequence | gcPBM binding intensity (ln) |
| --- | --- |
| AAAAAAAATAAAATAATAAAAATTATGAATATATAT [CACACA_negctrl_site280] | 9.42 ± 0.16 |
| TGGAGGTCAGTTCACAGTACCCAGTAACTCTACGGA [XGTACX_site2549] | 10.8 ± 0.51 |
| ATCATTCCACTTTTCACACATATCTCTATTTCTATC [CACACA_site4723] | 10.01 ± 0.085 |
| TTAAATGTAATATAATGTACGGATATTTACCATAAA [XGTACX_site1472] | 11.1 ± 0.77 |
| AAGTATGTATCACAAAGTACTTAAGCATATATTTAA [XGTACX_site4121] | 10.8 ± 0.39 |
| TTGTAATAAATAAAAGTGCATATATGGTTCCACTAT [GTGCAC_site9944] | 10.4 ± 0.32 |
| GTATATATAATGTGCCGTACATTTATATATTCAATA [XGTACX_site1051] | 10.9 ± 0.54 |
| GTATAATAGAAACACACACACACACCCAAAAAAAAA [CACACA_site2010] | 10.5 ± 0.36 |
| TTATTTTTTTATTCATGTACACAAGAACATTTCATT [XGTACX_site5744] | 11.3 ± 0.67 |
| TACAAATATGGACACACACACATATATATATATATA [CACACA_site4488] | 11.2 ± 0.79 |
| TAAATATATTGGAGAGGTACACTTTTGGCATTGAAA [XGTACX_site8447] | 11.2 ± 0.71 |
| ACATATTAAATATGAGTGCAATATATATATATATAA | 10.2 ± 0.25 |
| TATAATTATATAAATTGTACATAAAAAGTTTTTACT [XGTACX_site3621] | 11.1 ± 0.83 |
| TATTATATCTTTTCAAGTACACATAACATACTTATT [XGTACX_site1081] | 11.3 ± 0.75 |
| TTAGGTATATATAAACGTACTCACAATATCATATAA [XGTACX_site8743] | 11.1 ± 0.71 |
| CAATATATTATATGGGTGCAAACCACATATAAATAA | 10.2 ± 0.17 |
| AAGTTTAAAATCTTTGCACACATATAAATAAATATA [CACACA_site2554] | 10.2 ± 0.29 |
| ATAAATAAATAAAAAAGTACATTTCCACTTTTAACA [XGTACX_site81] | 11.2 ± 0.83 |
| TGCACCCACCAACACACACACAACTAAAAAATAATG [CACACA_site2566] | 10.5 ± 0.58 |
| TATATATACTTTTATGTACACACCTATAATATGGGT [CACACA_site1759] | 11.3 ± 0.72 |
| AAATGTAATAATAAATGTACAAACATATATATGTAT [XGTACX_site8718] | 10.8 ± 0.46 |
| GCTTAAGGTAAATATAAAATATAGTGTATACTTTAG [XGTACX_negctrl_site585] | 9.92 ± 0.14 |
| TTACGCTGCTATATAGTGCACATAATATATGACCTG | 10.2 ± 0.18 |

| Sequence | gcPBM binding intensity (ln) |
| --- | --- |
| ATAAAAGATATGTATATGTATATGTATATATATATA [TGCATGCA_negctrl_site214] | 9.88 ± 0.4 |
| TATAAATAAATAGATACACACATATTTATAAATACA [CACACA_site6219] | 9.96 ± 0.14 |
| GTATGTATGTATGTATGTACTTATTAATCAGTAAAA [XGTACX_site3844] | 11.4 ± 0.86 |
| ACTTAGGAAATAAAACGTACATTAAATATATACATA [XGTACX_site2990] | 11.5 ± 0.83 |
| TGAATAATCAATAGTACACACATATAAATATAAATA [CACACA_site7345] | 11.1 ± 0.95 |
| TTTTATTTATTATTATGTACACACTATATTAAAACA [XGTACX_site1265] | 11.6 ± 0.78 |
| AATTTTGTATAGGTATCACACATGAAATATATTATT [CACACA_site5526] | 10.1 ± 0.13 |
| TTTTTGTTAACAATGGGTACAAAAAAAAGGAAAATA [XGTACX_site7466] | 11.3 ± 0.86 |
| CCCAAAAAATATCATAGTACTCAACATGACTACTAT [XGTACX_site7838] | 11 ± 0.41 |
| ATAAAGATTAACAAAGTGCATTTATATATATAATCT [GTGCAC_site9407] | 9.81 ± 0.057 |
| AAATAAAATAATAAAACATGCAAAAATAATGATTTA [TGCATGCA_site415] | 9.765 ± 0.035 |
| CATGTGTGATAATGATGTACTATATTAAGCTAGTCC [XGTACX_site2690] | 10.9 ± 0.47 |
| TATATACATATATATTGTACTTATTTTTATAATGTC [XGTACX_site3453] | 11.3 ± 0.89 |
| ATTCTACGCACGCGCACACACAACAAAAAAAAAAAA [CACACA_site3538] | 10.8 ± 0.68 |
| GTGATGGTACAATATACACACTTAAAAAAAAAAAAT [CACACA_site5360] | 10.8 ± 0.78 |
| ATTTAATACAAATACACACACAAATAAATACAGATA [CACACA_site5956] | 10.3 ± 0.32 |
| TTAAGGCATCAACATAGTACAATTTTTCTATAATAA [XGTACX_site1114] | 10.6 ± 0.4 |
| TTTATTTCCTTTTTGTGTACATATATATGTAATTCA [XGTACX_site1718] | 11.4 ± 0.77 |
| TTTATAATTCTTACAACACACAATGTACTTTTATAT [CACACA_site8340] | 11.3 ± 0.84 |
| TATTATATAAAATATTTTATTATATCATCTTCTCTA [XGTACX_negctrl_site319] | 9.63 ± 0.18 |
| GGTAATAATATGCATAGTACATAATATATATATATA [XGTACX_site6793] | 10.8 ± 0.64 |
| AAGAAAAATAATTAGGGTGAAAATATATAGAGTAAA [TGCATGCA_negctrl_site590] | 9.79 ± 0.25 |
| CAATTCTTAAGTTCTTGTACGAAAAACGACAATTTA [XGTACX_site3890] | 11 ± 0.66 |

| Sequence | gcPBM binding intensity (ln) |
| --- | --- |
| ACACATATATATATATATATATATATATATATATAT [CACACA_negctrl_site1766] | 10.7 ± 0.76 |
| GTATGTATGTATGTATGTACGTATTTATTTATTTAA [XGTACX_site726] | 11.5 ± 1 |
| ATAATATAAATAATTATACACACTTAATATATATAT [CACACA_site2782] | 9.92 ± 0.028 |
| TAAATGTGAAATTTTATATTTTATATAATATACAAT [CACACA_negctrl_site76] | 9.71 ± 0.23 |
| AAGGATCACCCACAAACACACATATATATATATATA [CACACA_site559] | 10.3 ± 0.6 |
| AACATAAGTAATATTTGTACATATATAATAATATAT [XGTACX_site5123] | 10.8 ± 0.56 |
| AAAAATGGTGTTAACACACACATATAAATAAATATA [CACACA_site6412] | 9.765 ± 0.049 |
| ATCATATTTTTATGTGTGCACTTTTTTTTTTTTTTT [GTGCAC_site9555] | 10.9 ± 0.56 |
| CTCTTATACATATTCCTGCACTTATTTTTAAAAACA [GTGCAC_site9620] | 10.7 ± 0.43 |
| AAGAAAAGCATAGATGCACACATATATATATATATA [CACACA_site8675] | 10.2 ± 0.49 |
| GGAACTTAAAAAAAATGTACTTATAAAAAAGGAAAT [XGTACX_site8186] | 11.2 ± 0.86 |
| TTACACATACATATGTGGGAAAATATTGCTACATAT [CACACA_negctrl_site463] | 10.03 ± 0.042 |
| AACATGCAAACATGCACACAGAAAAAAAAAATATAT [CACACA_site1565] | 9.99 ± 0.19 |
| ATCATTATATTATGGTGTACCCATATATAATTATCA [XGTACX_site551] | 11.4 ± 0.88 |
| CATTAAACCGTGGGAGCACACACACCCACCCACCCA [CACACA_site8000] | 10.7 ± 0.36 |
| AATTTAAAGAATTGTAGTACAATGAAATATATATAA [XGTACX_site7970] | 11.6 ± 1.1 |
| AATACCTATGGAATTAATAATATGTGTACAGACACA [TGCATGCA_negctrl_site547] | 11.3 ± 0.96 |
| AACAATGGATTATTCACACATAAAAAAATTCACATT [CACACA_site5437] | 9.76 ± 0.13 |
| TATATATATATATATACACACATATATATATTTTTC [CACACA_site3983] | 10.2 ± 0.61 |
| TGTTAAATTATTTATCAGATTATTATTTGTAAATAA [CACACA_negctrl_site1535] | 9.52 ± 0.099 |
